≈ marks a conversion by molar mass, not a printed value.
Test system: C. difficile vegetative cells (R20291 strain)
Assay: microbe, parasite or virus in culture
Conditions: Clostridioides difficile, 24 h, read-out: MIC, minimum inhibitory concentration for vegetative cell growth

CN[C@H](CC(C)C)C(=O)N[C@H]1C(=O)N[C@@H](CC(N)=O)C(=O)N[C@H]2C(=O)N[C@H]3C(=O)N[C@H](C(=O)N[C@H](C(=O)O)c4cc(O)cc(O)c4-c4cc3ccc4O)[C@H](O)c3ccc(c(Cl)c3)Oc3cc2cc(c3O[C@@H]2O[C@H](CO)[C@@H](O)[C@H](O)[C@H]2O[C@H]2C[C@](C)(N)[C@H](O)[C@H](C)O2)Oc2ccc(cc2Cl)[C@H]1O [vancomycin]
MIC: 0.5 µg/mL (≈ 0.345 µM)
